This note sets out measurements from article PMC4336329 (PLoS ONE, 2015).

Hit rate of the full screen: of about 310,000 compounds, about 14,000 (4.5%) showed an effect of 50% or more. Effects have a minus sign here. This is one part of the list.
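Note: peak tail current of the secondary pulse compared with the same well before compound.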

human ether-à-go-go-related gene (hERG) potassium channel, sequence (Q12809 whole entry, looked up): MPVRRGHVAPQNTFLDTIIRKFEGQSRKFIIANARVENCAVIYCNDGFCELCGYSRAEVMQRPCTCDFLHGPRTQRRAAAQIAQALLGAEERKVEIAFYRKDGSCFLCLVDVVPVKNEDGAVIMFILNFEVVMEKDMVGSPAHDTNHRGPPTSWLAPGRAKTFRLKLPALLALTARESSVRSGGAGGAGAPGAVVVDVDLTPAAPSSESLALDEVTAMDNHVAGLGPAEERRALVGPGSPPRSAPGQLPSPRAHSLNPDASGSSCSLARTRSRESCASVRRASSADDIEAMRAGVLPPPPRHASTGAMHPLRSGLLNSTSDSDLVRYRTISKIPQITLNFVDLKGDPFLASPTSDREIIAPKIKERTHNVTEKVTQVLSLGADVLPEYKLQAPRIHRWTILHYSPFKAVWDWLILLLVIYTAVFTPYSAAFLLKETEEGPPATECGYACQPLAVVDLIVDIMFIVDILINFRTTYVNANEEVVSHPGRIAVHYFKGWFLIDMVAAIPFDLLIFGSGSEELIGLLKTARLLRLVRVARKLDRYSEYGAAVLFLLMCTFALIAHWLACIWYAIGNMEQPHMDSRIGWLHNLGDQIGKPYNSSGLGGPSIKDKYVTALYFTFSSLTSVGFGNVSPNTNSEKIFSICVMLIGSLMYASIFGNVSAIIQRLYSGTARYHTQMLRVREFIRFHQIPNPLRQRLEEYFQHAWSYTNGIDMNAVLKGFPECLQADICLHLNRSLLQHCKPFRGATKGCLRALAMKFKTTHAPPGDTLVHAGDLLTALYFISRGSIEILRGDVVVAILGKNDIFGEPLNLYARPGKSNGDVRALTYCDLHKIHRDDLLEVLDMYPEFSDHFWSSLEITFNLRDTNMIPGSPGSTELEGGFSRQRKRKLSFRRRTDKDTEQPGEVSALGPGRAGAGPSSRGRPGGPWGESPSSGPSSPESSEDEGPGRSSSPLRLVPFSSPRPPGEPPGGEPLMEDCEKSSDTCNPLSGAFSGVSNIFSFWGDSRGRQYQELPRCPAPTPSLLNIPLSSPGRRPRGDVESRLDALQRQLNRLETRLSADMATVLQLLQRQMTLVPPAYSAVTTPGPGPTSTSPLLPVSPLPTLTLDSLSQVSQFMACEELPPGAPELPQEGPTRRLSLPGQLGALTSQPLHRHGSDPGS

The test concerns the target human ether-à-go-go-related gene (hERG) potassium channel (human, UniProt Q12809). In words: primary screen, population patch clamp on CHO cells stably expressing hERG.
Consider `O=C(CN(C1CCCCC1)S(=O)(=O)c1ccc(Cl)cc1)N1CCOCC1`, for which the “hERG current change (%, negative = inhibition) at 10uM” value was -59.5%. In the case of `CCOc1cc(C2NC(=O)NC(c3ccccc3)=C2C(C)=O)ccc1OCC(N)=O` (centres unmarked), the “hERG current change (%, negative = inhibition) at 10uM” value was found to be 0.596%. Under `COc1ccc(Nc2nc(C)cc(=O)[nH]2)c(OC)c1` stands -10.5%. Turning to `COc1ccc(C(=O)Cn2cc[n+](C)c2)cc1.[Br-]`, the “hERG current change (%, negative = inhibition) at 10uM” value was 3.79%. For the molecule `Cc1cc2nnc(SCC(=O)NCC3CCCO3)n2c2ccccc12` (centres unmarked), the “hERG current change (%, negative = inhibition) at 10uM” value is 21.9%. As for `CC1=C(C(=O)Nc2ccccc2)C(c2ccco2)n2ncnc2N1` (centres unmarked), the figure is 1.42%; as for `CC(Sc1nc2ccccc2c(=O)n1CC1CCCO1)C(=O)Nc1ccc(S(N)(=O)=O)cc1` (centres unmarked), -47.3%; as for `COc1ccc(-c2nc(N)ncc2-c2ccc(Cl)cc2)c(O)c1`, 13.6%. Regarding `CCC(=O)c1ccc(N2CCN(C(=O)c3cc([N+](=O)[O-])ccc3N3CCN(C)CC3)CC2)c(F)c1`, the “hERG current change (%, negative = inhibition) at 10uM” value is recorded as -46.4%. Under `S=c1nc(C2CC2)[nH]c2ccccc12` stands 20.7%; under `COc1ccc(Cn2nnnc2C(c2cccs2)N2CCN(c3ccc([N+](=O)[O-])cc3)CC2)cc1` (centres unmarked), -8.98%. As for `Cc1noc(C)c1CSCC(=O)N(C)CC(=O)Nc1ccc(Cl)c(C(F)(F)F)c1`, the figure is -30.1%. On to `COc1cccc(NC(=O)COC(=O)CCC(=O)c2cccs2)c1`, for which the “hERG current change (%, negative = inhibition) at 10uM” value was 5.06%. As to `CCN(CC)S(=O)(=O)c1cc(NC(=O)Cc2n[nH]c(=O)c3ccccc23)ccc1C`, the “hERG current change (%, negative = inhibition) at 10uM” value is -21.2%.

Turning to `O=c1c2cc(-c3ccccc3)sc2ncn1/N=C/c1ccco1`, the “hERG current change (%, negative = inhibition) at 10uM” value came to 8.21%. Under `Cn1cc(CC(=O)NCCCN2CCOCC2)c2ccccc21` stands 19.5%; under `O=C(C/C(=N/O)c1ccccc1O)C(F)F`, 3.01%. Under `Cc1cccc(CC(=O)Nc2ccon2)c1` stands 11.3%. With `COc1ccc(CCNC(=O)CCNC(=O)N2CC(=O)Nc3ccccc32)cc1OC`, the “hERG current change (%, negative = inhibition) at 10uM” value is reported as 21.7%. With `CSCCC(NC(=O)OCc1ccccc1)C(=O)NCc1cccnc1` (centres unmarked), the “hERG current change (%, negative = inhibition) at 10uM” value is given as 6.06%. For the molecule `Cc1ccccc1Nc1cc(=O)oc2ccccc12`, the “hERG current change (%, negative = inhibition) at 10uM” value was -5.14%. With `COc1ccc(C(=O)CN2C(=O)c3ccccc3C2=O)c(OC)c1C`, the “hERG current change (%, negative = inhibition) at 10uM” value is reported as 3.92%. Consider `CCN(CCNS(=O)(=O)c1ccc2[nH]c(=O)sc2c1)c1ccccc1`, for which the “hERG current change (%, negative = inhibition) at 10uM” value is -28.5%. `COc1ccc(-c2nnc(SCC(=O)Nc3nncs3)o2)cc1`: the “hERG current change (%, negative = inhibition) at 10uM” value worked out at 21.3%. As for `Cc1ccc(S(=O)(=O)N2CCOCC2)cc1NC(=O)Cn1ccsc1=N.Cl`, the figure is -5.64%; as for `O=[N+]([O-])c1ccc(CS(=O)(=O)c2ccc(Cl)cc2)cc1`, -9.81%.

For the molecule `O=C(O)c1cccc(S(=O)(=O)N2CCN(c3ccccn3)CC2)c1`, the “hERG current change (%, negative = inhibition) at 10uM” value was found to be 19.3%.

For the molecule `O=C(CSc1nc2ncc(Cl)cc2[nH]1)NCC(=O)Nc1ccc(F)c(F)c1F`, the “hERG current change (%, negative = inhibition) at 10uM” value is -11.7%. `C=CCN1CN=C(NS(=O)(=O)c2ccc(NC(C)=O)cc2)NC1`: the “hERG current change (%, negative = inhibition) at 10uM” value was -0.801%. Under `Cl.c1ccc(-c2csc(N3CCOCC3)n2)cc1` stands -1.86%. Regarding `CCOC(=O)c1c(-c2ccccc2)cn2c(C)cc(C)nc12`, the “hERG current change (%, negative = inhibition) at 10uM” value is reported as -22.9%. For `COc1ccc(/C=C2\SC(=O)NC2=S)cc1OC`, the “hERG current change (%, negative = inhibition) at 10uM” value was 7.46%. As for `CCOc1cc(C(=O)N(CC)CC(=O)Nc2c(F)cccc2F)ccc1OCC(=O)N1CCCCC1`, the figure is -7.38%; as for `Cc1ccc(S(=O)(=O)N2CCCCC2C)cc1[N+](=O)[O-]` (centres unmarked), 4.84%. As for `OC(c1ccccc1)(c1ccccc1)C1CCN(C(=S)NC2CCCC2)CC1`, the figure is -6.13%; as for `Cc1cc(C(=O)CN2CCN(CC(=O)Nc3ccc(F)cc3)CC2)c(C)n1C1CC1`, -74.5%; as for `O/N=C\c1ccc2noc(-c3ccc(Cl)cc3)c2c1`, 15.3%. Regarding `CCOc1ccccc1NC(=O)COC(=O)c1ccccc1SCC(=O)N1CCCC1`, the “hERG current change (%, negative = inhibition) at 10uM” value was found to be 1.65%. For `COc1ccc(CC(=O)OCC(=O)Nc2c(C)n(C)n(-c3ccccc3)c2=O)cc1`, the “hERG current change (%, negative = inhibition) at 10uM” value is given as -7.08%. As for `Cl.O=C1c2cccc3cccc(c23)C(=O)N1CC1CCN(CC(O)COCc2ccc3c(c2)OCO3)CC1` (centres unmarked), the figure is -75.3%. Under `C#CCOCCOCCOCCNc1nc(N2CCN(C(=O)Cn3cc(CCC[NH+]=C(N)N)nn3)CC2)nc(N2CCN(C(=O)[C@H](CCCC[NH3+])n3cc(CCC(=O)O)nn3)CC2)n1.[Cl-]` stands -11.4%; under `Cc1ccc(N2C(=O)CSC2c2cccnc2)cc1F` (centres unmarked), 5.77%. Take `CC(C)(C)c1ccc(C(=O)Nc2nnc(Cc3c[nH]c4ccccc34)s2)cc1`: the “hERG current change (%, negative = inhibition) at 10uM” value worked out at 3.42%. Under `Fc1ccccc1-c1n[nH]c(=S)n1/N=C/c1c[nH]c2ccccc12` stands 17.3%.
